Experimental data taken from publication PMC11149917, “Translational and Therapeutic Evaluation of RAS-GTP Inhibition by RMC-6236 in RAS-Driven Cancers” (Cancer Discovery, 2024).
This continues a long series; more values of the same kind are listed elsewhere.

System: PRISM panel of 845 cancer cell lines
Assay: PRISM assay
Type: cell-based, human
Description: The PRISM cell set comprised 845 cell lines representing more than 45 lineages (see Supplementary Table S1 for cell line information), which largely overlapped with the Cancer Cell Line Encyclopedia; https://portals.broadinstitute.org/ccle). Cell lines were grown in RPMI without phenol red and supplemented with 10% or 20% FBS for adherent and suspended lines, respectively. Parental cell lines were stably infected with a unique 24-nucleotide DNA barcode via lentiviral transduction and blasticidin selection. After selection, barcoded cell lines were expanded and subjected to quality control (Mycoplasma contamination test, an SNP test for confirming cell line identity, and barcode ID confirmation). Approved cell lines were then pooled (20–25 cell lines per pool) based on doubling time similarity and frozen in assay-ready vials.
RMC-6236 was added to 384-well plates at 8-point concentration with 3-fold dilutions in triplicate. These assay-ready plates were then seeded with the thawed cell line pools. Adherent cell pools were plated at 1,250 cells per well, whereas suspension and mixed adherent/suspension pools were plated at 2,000 cells per well. Treated cells were incubated for 5 days, and then lysed. Lysate plates were collapsed together prior to barcode amplification and detection.
Each cell line's unique barcode is located in the 3′UTR of the blasticidin-resistance gene and therefore is expressed as mRNA. Total mRNA was captured using magnetic particles that recognize polyA sequences. Captured mRNA was reverse-transcribed into cDNA and then the sequence containing the unique PRISM barcode was amplified using PCR. Finally, Luminex beads that recognize the specific barcode sequences in the cell set were hybridized to the PCR products and detected using a Luminex scanner which reports the signal as a median fluorescent intensity (MFI).
• Each detection well contained 10 control barcodes in increasing abundances as spike-in controls. For each plate, we first create a reference profile by calculating the median of the log2(MFI) values across negative control wells for each of these spiked-in barcodes. • For each well, a monotonic smooth p-spline was fitted to map the spike-in control levels to the reference profile. Next, we transform the log2(MFI) for each cell barcode using the fitted spline to allow well-to-well comparisons by correcting for amplification and detection artifacts. • Next, the separability between negative and positive control treatments was assessed. In particular, we calculated the error rate of the optimum simple threshold classifier between the control samples for each cell line and plate combination. The error rate is a measure of the overlap of the two control sets and was defined as error = (FP + FN)/n, where FP is false positives, FN is false negatives, and n is the total number of controls. A threshold was set between the distributions of positive and negative control log2(MFI) values (with everything below the threshold said to be positive and above said to be negative) such that this value is minimized. Additionally, we also calculated the dynamic range of each cell line. […] Additionally, any cell line that had less than 2 passing replicates was also omitted for the sake of reproducibility. Finally, we computed viability by normalizing with respect to the median negative control for each plate.
For every gene with nonsilent mutations in at least four cell lines, we compared the AUC values between cells with and without those mutations using a t test. This analysis was carried out for (i) the full data set; (ii) excluding cell lines with nonsilent KRAS mutations; and (iii) excluding cell lines that have either KRAS or NRAS nonsilent mutations.

CCn1c(-c2cc(N3CCN(C)CC3)cnc2[C@H](C)OC)c2c3cc(ccc31)-c1csc(n1)C[C@H](NC(=O)[C@H]1C[C@@H]1C)C(=O)N1CCC[C@H](N1)C(=O)OCC(C)(C)C2 [RMC-6236]
RMC-6236: RevMed PRISM: AUC (SNU1105_CENTRAL_NERVOUS_SYSTEM): 0.6864
RMC-6236: RevMed PRISM: AUC (SNU1196_BILIARY_TRACT): 0.9106
RMC-6236: RevMed PRISM: AUC (SNU1214_UPPER_AERODIGESTIVE_TRACT): 0.4564
RMC-6236: RevMed PRISM: AUC (SNU1544_LARGE_INTESTINE): 0.667
RMC-6236: RevMed PRISM: AUC (SNUC2A_LARGE_INTESTINE, KRAS p.G12D): 0.8752
RMC-6236: RevMed PRISM: AUC (SSP25_BILIARY_TRACT): 0.9443
RMC-6236: RevMed PRISM: AUC (SUDHL1_HAEMATOPOIETIC_AND_LYMPHOID_TISSUE): 0.5026
RMC-6236: RevMed PRISM: AUC (SUM149PT_BREAST): 0.5255
RMC-6236: RevMed PRISM: AUC (SUPT11_HAEMATOPOIETIC_AND_LYMPHOID_TISSUE): 1
RMC-6236: RevMed PRISM: AUC (SUSA_TESTIS): 0.6211
RMC-6236: RevMed PRISM: AUC (SW156_KIDNEY): 0.9098
RMC-6236: RevMed PRISM: AUC (SW480_LARGE_INTESTINE, KRAS p.G12V): 0.4385
RMC-6236: RevMed PRISM: AUC (SW620_LARGE_INTESTINE, KRAS p.G12V): 0.2672
RMC-6236: RevMed PRISM: AUC (SW756_CERVIX, KRAS p.G12C): 0.4293
RMC-6236: RevMed PRISM: AUC (SW780_URINARY_TRACT): 0.5849
RMC-6236: RevMed PRISM: AUC (SW837_LARGE_INTESTINE, KRAS p.G12C): 0.595
RMC-6236: RevMed PRISM: AUC (SW900_LUNG, KRAS p.G12V): 0.5248
RMC-6236: RevMed PRISM: AUC (SW948_LARGE_INTESTINE, KRAS p.Q61L): 0.4797
RMC-6236: RevMed PRISM: AUC (SW954_CERVIX): 0.6119
RMC-6236: RevMed PRISM: AUC (SW1088_CENTRAL_NERVOUS_SYSTEM): 0.7425
RMC-6236: RevMed PRISM: AUC (SW1116_LARGE_INTESTINE, KRAS p.G12A): 0.7333
RMC-6236: RevMed PRISM: AUC (SW1463_LARGE_INTESTINE, KRAS p.G12C): 0.2992
RMC-6236: RevMed PRISM: AUC (SW1573_LUNG, KRAS p.G12C): 0.6165
RMC-6236: RevMed PRISM: AUC (SW1783_CENTRAL_NERVOUS_SYSTEM): 0.8089
RMC-6236: RevMed PRISM: AUC (SW1990_PANCREAS, KRAS p.G12D): 0.8199
RMC-6236: RevMed PRISM: AUC (T3M5_THYROID): 0.8927
RMC-6236: RevMed PRISM: AUC (T3M10_LUNG, KRAS p.G12D): 0.8488
RMC-6236: RevMed PRISM: AUC (T24_URINARY_TRACT, HRAS p.G12V): 0.6445
RMC-6236: RevMed PRISM: AUC (T47D_BREAST): 0.8912
RMC-6236: RevMed PRISM: AUC (T84_LARGE_INTESTINE, KRAS p.G13D): 0.6008
RMC-6236: RevMed PRISM: AUC (T98G_CENTRAL_NERVOUS_SYSTEM): 0.7881
RMC-6236: RevMed PRISM: AUC (TALL1_HAEMATOPOIETIC_AND_LYMPHOID_TISSUE, NRAS p.G12D): 0.4239
RMC-6236: RevMed PRISM: AUC (TASK1_CENTRAL_NERVOUS_SYSTEM): 0.8516
RMC-6236: RevMed PRISM: AUC (TC71_BONE): 0.8332
RMC-6236: RevMed PRISM: AUC (TCCPAN2_PANCREAS, KRAS p.G12R): 0.5434
RMC-6236: RevMed PRISM: AUC (TE1_OESOPHAGUS): 0.8076
RMC-6236: RevMed PRISM: AUC (TE5_OESOPHAGUS): 0.5868
RMC-6236: RevMed PRISM: AUC (TE6_OESOPHAGUS): 0.5591
RMC-6236: RevMed PRISM: AUC (TE10_OESOPHAGUS): 0.6666
RMC-6236: RevMed PRISM: AUC (TE11_OESOPHAGUS): 0.7785
RMC-6236: RevMed PRISM: AUC (TE14_OESOPHAGUS): 0.6036
RMC-6236: RevMed PRISM: AUC (TE15_OESOPHAGUS): 0.3712
RMC-6236: RevMed PRISM: AUC (TEN_ENDOMETRIUM, KRAS p.T74P): 0.8739
RMC-6236: RevMed PRISM: AUC (TF1_HAEMATOPOIETIC_AND_LYMPHOID_TISSUE, NRAS p.Q61P): 0.3969
RMC-6236: RevMed PRISM: AUC (TGBC1TKB_BILIARY_TRACT): 0.946
RMC-6236: RevMed PRISM: AUC (TGBC18TKB_LARGE_INTESTINE): 0.7019
RMC-6236: RevMed PRISM: AUC (TGBC52TKB_BILIARY_TRACT, KRAS p.G12D): 0.5472
